From PubChem BioAssay AID488969 (Vanderbilt High Throughput Screening Facility, 2010) come the findings set out here.

In all, about 110,000 compounds were measured (“z-score”: median about -0.1, highest 2% from about 2 on). Some of the results follow. Active and inactive are the calls of the source.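 How the source made its calls: active means z-score in the third read window above 3 or below -3; inactive means the rest.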

This experiment addresses Metabotropic glutamate receptor 8 (Rattus norvegicus) (UniProt P70579). Description: rat mGluR8 modulators via GIRK flux, primary screen, cell-based, thallium flux, HTS (AID 488969). As to conditions: HEK293 rat mGluR8, GIRK (G protein-gated inwardly rectifying potassium channel) thallium flux, FluoZin2; at 10 µM; stronger effect = higher value; submaximal glutamate (EC20) added with thallium.
Chain of UniProt P70579 (P70579 whole entry, looked up): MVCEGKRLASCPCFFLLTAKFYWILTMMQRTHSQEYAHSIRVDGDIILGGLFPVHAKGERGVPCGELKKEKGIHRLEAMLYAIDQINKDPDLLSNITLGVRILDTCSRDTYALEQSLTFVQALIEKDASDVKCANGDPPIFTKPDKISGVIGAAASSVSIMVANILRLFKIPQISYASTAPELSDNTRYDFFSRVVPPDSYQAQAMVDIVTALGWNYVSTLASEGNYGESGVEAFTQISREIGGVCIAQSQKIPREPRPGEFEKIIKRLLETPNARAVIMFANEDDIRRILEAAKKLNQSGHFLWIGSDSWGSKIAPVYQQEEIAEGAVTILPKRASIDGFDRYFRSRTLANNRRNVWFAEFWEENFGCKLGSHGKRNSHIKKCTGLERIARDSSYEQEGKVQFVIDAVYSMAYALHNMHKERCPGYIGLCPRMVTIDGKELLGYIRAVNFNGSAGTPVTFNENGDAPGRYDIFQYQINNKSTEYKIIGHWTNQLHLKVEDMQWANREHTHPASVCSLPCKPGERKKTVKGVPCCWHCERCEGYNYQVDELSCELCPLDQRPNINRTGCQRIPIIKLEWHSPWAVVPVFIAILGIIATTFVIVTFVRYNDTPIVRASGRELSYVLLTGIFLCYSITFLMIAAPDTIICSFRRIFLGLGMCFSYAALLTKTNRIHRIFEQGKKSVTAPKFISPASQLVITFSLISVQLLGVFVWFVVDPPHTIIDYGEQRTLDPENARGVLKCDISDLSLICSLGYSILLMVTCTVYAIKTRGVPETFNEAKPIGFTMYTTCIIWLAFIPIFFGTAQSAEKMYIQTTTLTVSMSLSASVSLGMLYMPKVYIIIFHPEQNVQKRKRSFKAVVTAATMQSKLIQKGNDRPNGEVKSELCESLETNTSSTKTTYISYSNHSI
Turning to `O=C(CN(c1ccccc1)S(=O)(=O)c1ccccc1[N+](=O)[O-])NN=C1CCCCCCC1`, the z-score was -0.494.
As for `O=C1OCCC1Sc1nc2ccccc2n1Cc1ccccc1` (stereo not drawn), the figure is -1.37.
For `CCn1c(SCC(=O)N2CCCCC2)nnc1-c1ccc(S(=O)(=O)N2CCN(C)CC2)cc1` the value was -0.0299.
As for `CCNC(=S)N/N=C1\C(=O)c2cccc3cccc1c23`, the figure is active: 12.9.
For `CCCCc1cc(=O)oc2cc(OCC(=O)N3CCc4ccccc43)ccc12`, the z-score is -0.409.
For `CCCC(=O)Nc1ccc(N2CCN(C(=O)c3cccs3)CC2)cc1` the value was 0.0313; for `COc1ccc(OC)c(C2C(C(=O)O)c3ccccc3C(=O)N2C)c1` (stereo not drawn), 0.356; for `CCCc1cc(=O)[nH]c(SCC(=O)N(CC)Cc2ccccc2)n1`, -1.
`CCOC(=O)C1=C(CN2CCc3ccccc32)NC(=O)NC1c1ccc(Cl)cc1` (stereo not drawn) registered a z-score of 0.26.
For `O=c1c2c(nc3cc(-c4ccccc4)[nH]n13)CCC2` the value was -0.413; for `CC(=O)N(C)C1(c2nnnn2CCOC(=O)Nc2cccc3ccccc23)CCCC1`, 0.187.
For `C/C(=N\NC(=O)COc1ccc(C#N)cc1)c1ccccc1OC(F)F` the value was 0.0716.
As for `CCOC(=O)c1c(C)oc2c1c(C=NC1CCS(=O)(=O)C1)c(O)c1ccccc12` (stereo not drawn), the figure is -0.323; as for `O=C(N/C=N/OCc1ccc(Cl)cc1Cl)NOCc1ncc(C(F)(F)F)cc1Cl`, 0.75.
For `COC(=O)c1sccc1NC(=O)c1cc(C)on1`, the z-score was -0.898.
As for `Cc1ccc(S(=O)(=O)n2cnc3cc([N+](=O)[O-])ccc32)c(C)c1`, the z-score is -0.00845.
For `N#CCCn1cc(/C=N/NC(=O)c2ccncc2)c(-c2ccc(F)cc2)n1` the value was -0.112.
For the molecule `CCCOc1cc(C)c(S(=O)(=O)n2nnc3ccccc32)cc1C`, the z-score was 0.195.
`COc1ccc(-n2c(Cc3cccn3C)nnc2SCC(=O)Nc2ccc(C(C)=O)cc2)cc1` had a z-score of -0.586.
`O=C(O)CSc1nc(-c2ccccc2)cc(=O)[nH]1` showed a z-score of -0.00201.
For `C=CCSc1nccc(-c2nn(-c3ccc(C)cc3)ccc2=O)n1` the value was -0.168.
On to `Fc1ccccc1CNCCC(Cc1ccccc1)c1ccc2c(c1)OCO2` (stereo not drawn), for which the z-score is 0.733.
`O=C(OCCN1C(=O)c2cccc3c(N4CCOCC4)ccc(c23)C1=O)c1cccc(Cl)c1` came in with a z-score of 2.81.
For `NCCN1CCN(CCN)CC1` the value was 0.79; for `O=c1[nH]c(SCc2nc3ccccc3n2Cc2ccccc2)nc2ccccc12`, -0.408.
For `O=c1cc(CSc2nnc(-c3cccnc3)n2-c2ccccc2F)nc2sccn12` the value was 0.585; for `Cc1cc(C)nc(N2CCCC(C(=O)NCC(c3ccccc3)c3ccccc3)C2)n1` (stereo not drawn), 0.0177; for `CC(=O)NCc1nc2ccccc2n1Cc1ccccc1C`, -0.353.
As for `O=C(CN1CCN(c2ccccc2F)CC1)N1N=CCC1c1ccccc1` (stereo not drawn), the z-score stood at 0.0133.
For `CCN(CC)CCCNc1oc(-c2cccc(Cl)c2)nc1C#N` the value was 1.31; for `NC(=O)CCn1c(=O)oc2ccccc21`, 0.517; for `Cc1ccc(CCNC(=O)C23CN(Cc4ccccc4)CC2C(c2ccc([N+](=O)[O-])cc2)=NO3)cc1` (stereo not drawn), -0.0964.
Molecule `Cc1ccccc1NC(=S)NCc1ccc2c(c1)OCO2` displayed a z-score of -0.132.
For `CNC(=O)n1ccc(C(=O)N2CCCCC2)n1` the value was 0.461.
For `Cc1ccc(Cn2nnc3c(=O)[nH]c(C4CCN(C(=O)Cc5cccs5)CC4)nc32)cc1` the value was 0.636; for `Cc1cc(NC(=O)CN2CCC(n3nnc4cc(C(F)(F)F)ccc43)CC2)no1`, -0.277; for `CCOC(=O)Cc1csc(NC(=O)NC2(C(F)(F)F)Oc3ccccc3O2)n1`, -0.266.
As for `Cc1ccc2cc(/C=N/NC(=O)[C@H](C)NC(=O)OC(C)(C)C)c(Cl)nc2c1`, the figure is 0.0812.
Molecule `O=C(CSc1nc2c(c(C(F)(F)F)n1)CCc1ccccc1-2)NCc1ccc(F)cc1` gave a z-score of 0.759.
As for `COc1cc(/C=C(\C#N)c2nc3ccccc3[nH]2)cc(Br)c1OCc1ccccc1`, the figure is 0.0675.
For `Cc1ccc(S(=O)(=O)N(C)C)cc1NC(=O)CSc1nc2ccccc2[nH]1` the value was -0.0977; for `COc1cc(OC)c(C2C(C(=O)Nc3ccccc3)=C(C)Nc3ncnn32)cc1OC` (stereo not drawn), 1.45.
Regarding `Cn1c(=O)c2cc(S(=O)(=O)N3CCOCC3)ccc2n(C)c1=O`, the z-score is 0.139.
As for `CCN(CC)S(=O)(=O)c1cccc(C(=O)OCc2cc(=O)n3nc(C)sc3n2)c1`, the figure is 1.93.
For `COc1ccc2c(c1OC)C(=O)OC2CC(=O)O` (stereo not drawn) the value was 0.0305; for `Cc1cc(Br)c(S(=O)(=O)n2nnc3ccccc32)cc1C`, 0.289; for `c1csc(-c2csc3ncnc(NCCCN4CCOCC4)c23)c1`, 0.0839.
The molecule `N#CCSc1nc2ccccc2c2nc3ccccc3n12` yielded a z-score of 1.3.
For `CC1CCN(C(C(=O)Nc2ccc3c(c2)OCO3)c2ccccc2)CC1` (stereo not drawn) the value was 0.852; for `Cc1sc2nc(CSc3cccc(C(F)(F)F)c3)[nH]c(=O)c2c1C`, -0.243.
In turn, `COc1ccc(-c2oc3ncn4nc(Cc5ccccc5)nc4c3c2-c2ccc(OC)cc2)cc1` returned a z-score of -0.304.
For `COc1ccc(C(=O)CN2C(=O)NC(C)(c3ccc(C)cc3)C2=O)cc1OC` (stereo not drawn) the value was 0.117.
`O=C(NCCCN1CCOCC1)NC1CCCCC1` registered a z-score of 0.0832.
For `Cc1ccc(C(=O)NCCSC(C)(C)C)cc1` the value was -0.631.
On to `CCC1(C)Cc2c(sc3c2c(=O)n(C)c2nnc(SCC(=O)c4ccccc4)n32)CO1` (stereo not drawn), for which the z-score was -0.469.
For `Cc1cc(-c2n[nH]c(=S)n2/N=C/c2cccs2)n[nH]1` the value was -0.233.
For `O=C(Nc1c(C(=O)Nc2cccc3ccccc23)cnn1-c1ccccc1)c1ccco1` the value was -0.454.
Regarding `COc1ccc(Oc2cc(C)c3ccccc3n2)cc1`, the z-score is -0.218.
Molecule `CS(=O)(=O)N(CC(=O)Nc1ccc2c(c1)OCO2)c1ccc(Cl)cc1` came in with a z-score of -0.572.
For `O=C(c1ccco1)N1CCC(c2nc(-c3ccccc3Cl)no2)CC1` the value was -0.00356.
As for `Cn1c(=O)c2c(nc(Sc3ncccn3)n2Cc2ccccc2Cl)n(C)c1=O`, the figure is -0.0395.
As for `CC(C)C(C)(C#N)NC(=O)CSc1nnc(-c2ccccc2)o1` (stereo not drawn), the figure is -0.849; as for `Cc1noc(C)c1S(=O)(=O)N1CCCC(C(=O)NCCc2ccc(Cl)cc2)C1` (stereo not drawn), -0.0482; as for `COc1ccc(CCNC(=O)COc2ccc(S(=O)(=O)N3CCOCC3)cc2)cc1`, 0.871.
Consider `CC(=O)Nc1ccc(NC(=O)CN(c2ccc(C34CC5CC(CC(C5)C3)C4)cc2)S(C)(=O)=O)cc1`, for which the z-score came to 0.0357.
For `O=C(NCc1ccco1)c1ccc(Br)c(S(=O)(=O)N2CCCCC2)c1` the value was -0.271; for `C=CCc1cccc(/C=N/n2cnnc2)c1O`, 0.0603.
`O=C(Oc1ccc(Cl)cc1)c1ccc(N2CCOCC2)c([N+](=O)[O-])c1` displayed a z-score of 0.173.
